Results taken from the supplement of paper PMC4967469.
Lines with a small IC50 respond at low doses; a limit (>, <) means that the fit lies beyond the doses tested. AUC is the area under the same curve over the 256-fold range up to the top dose, as a fraction; it is 1 without any effect and falls as sensitivity rises. For part of these data: Where the top dose is marked as inferred, it was derived from the fitted curves, not read from the paper.

Legend:
Assay in all cases: Viability of human cancer cell lines after 72 h of drug (GDSC screen)
17-AAG = compound: C=CCNC1=C2C[C@@H](C)C[C@H](OC)[C@H](O)[C@@H](C)/C=C(\C)[C@H](OC(N)=O)[C@@H](OC)/C=C\C=C(/C)C(=O)NC(=CC1=O)C2=O [17-AAG]; settings: top dose 1 µM
Description: (§1)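 Human cancer cell lines in 384-well plates, medium with 10% serum, drug for 72 h over a 256-fold dose range (nine 2-fold or five 4-fold steps up to the top dose). Adherent lines were fixed and stained with the nucleic acid dye Syto60, suspension lines read with resazurin; signal relative to control wells, capped at 0 and 100%. One two-parameter sigmoid per drug and line, fitted in a mixed model over all curves with the slope shared within a line.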

CCT018159 = compound: CCc1cc(-c2n[nH]c(C)c2-c2ccc3c(c2)OCCO3)c(O)cc1O [CCT018159]; settings: top dose 10 µM; top dose inferred
Description: as §1

BMX-IN-1 (QL-XII-61) = compound: C=CC(=O)Nc1cc(-n2c(=O)ccc3cnc4ccc(-c5ccc(NS(C)(=O)=O)cc5)cc4c32)ccc1C [BMX-IN-1 (QL-XII-61)]; settings: top dose 10 µM; top dose inferred
Description: as §1

Dimethyloxalylglycine = compound: COC(=O)CNC(=O)C(=O)OC [Dimethyloxalylglycine]; settings: top dose 4000 µM; top dose inferred
Description: as §1

Vismodegib = compound: CS(=O)(=O)c1ccc(C(=O)Nc2ccc(Cl)c(-c3ccccn3)c2)c(Cl)c1 [Vismodegib]; settings: top dose 10 µM; top dose inferred
Description: as §1

UNC1215 = compound: O=C(c1ccc(C(=O)N2CCC(N3CCCC3)CC2)c(Nc2ccccc2)c1)N1CCC(N2CCCC2)CC1 [UNC1215]; settings: top dose 1 µM; top dose inferred
Description: as §1

TG101348 = compound: Cc1cnc(Nc2ccc(OCCN3CCCC3)cc2)nc1Nc1cccc(S(=O)(=O)NC(C)(C)C)c1 [TG101348]; settings: top dose 10.24 µM
Description: as §1

VX-11e = compound: Cc1cnc(Nc2ccc(F)cc2Cl)nc1-c1c[nH]c(C(=O)N[C@H](CO)c2cccc(Cl)c2)c1 [VX-11e]; settings: top dose 5.12 µM; top dose inferred
Description: as §1

BIX02189 = compound: CN(C)Cc1cccc(N=C(c2ccccc2)c2c(O)[nH]c3cc(C(=O)N(C)C)ccc23)c1 [BIX02189]; settings: top dose 20 µM; top dose inferred
Description: as §1

OSI-027 = compound: COc1cccc2cc(-c3nc([C@H]4CC[C@H](C(=O)O)CC4)n4ncnc(N)c34)[nH]c12 [OSI-027]; settings: top dose 20 µM
Description: as §1

Row | Cell Line | AUC (17-AAG) | IC50 (17-AAG) [µM] | AUC (CCT018159) | IC50 (CCT018159) [µM] | AUC (BMX-IN-1 (QL-XII-61)) | IC50 (BMX-IN-1 (QL-XII-61)) [µM] | AUC (Dimethyloxalylglycine) | IC50 (Dimethyloxalylglycine) [µM] | AUC (Vismodegib) | IC50 (Vismodegib) [µM] | AUC (UNC1215) | IC50 (UNC1215) [µM] | AUC (TG101348) | IC50 (TG101348) [µM] | AUC (VX-11e) | IC50 (VX-11e) [µM] | AUC (BIX02189) | IC50 (BIX02189) [µM] | AUC (OSI-027) | IC50 (OSI-027) [µM]
1 | K-562 (chronic myeloid leukaemia, suspension) | 0.698 | 0.22 | 0.869 | 8.69 | 0.937 | > 10 | 0.798 | 1840 |  |  |  |  |  |  |  |  |  |  |  | 
2 | NCI-H929 (myeloma, suspension) | 0.829 | 0.501 | 0.82 | 4.69 | 0.786 | 3.64 |  |  | 0.95 | > 10 | 0.99 | > 1 |  |  |  |  |  |  |  | 
3 | DOV13 (ovary, adherent) | 0.378 | 0.0272 | 0.857 | > 10 | 0.864 | > 10 |  |  | 0.983 | > 10 | 0.979 | > 1 | 0.984 | > 10.2 | 0.929 | > 5.12 | 0.962 | > 20 | 0.816 | 13.3
4 | A673 (rhabdomyosarcoma, adherent) | 0.984 | > 1 | 0.899 | > 10 | 0.989 | > 10 | 0.548 | 333 |  |  | 0.989 | > 1 | 0.898 | > 10.2 | 0.988 | > 5.12 | 0.978 | > 20 |  | 
5 | RCC-JF (kidney, adherent) | 0.492 | 0.0593 | 0.891 | > 10 | 0.97 | > 10 |  |  | 0.967 | > 10 | 0.981 | > 1 | 0.695 | 2.43 | 0.925 | > 5.12 | 0.903 | > 20 | 0.267 | 0.246
6 | PEO1 (ovary, adherent) | 0.757 | 0.358 | 0.928 | > 10 | 0.919 | > 10 |  |  | 0.987 | > 10 | 0.985 | > 1 | 0.987 | > 10.2 | 0.902 | > 5.12 | 0.946 | > 20 | 0.981 | > 20
7 | MKN7 (stomach, adherent) | 0.948 | > 1 | 0.89 | > 10 | 0.981 | > 10 |  |  | 0.926 | > 10 | 0.982 | > 1 |  |  |  |  |  |  |  | 
8 | SK-MEL-28 (melanoma, adherent) | 0.595 |  | 0.927 | > 10 | 0.984 | > 10 | 0.61 | 497 |  |  | 0.987 | > 1 | 0.981 | > 10.2 | 0.824 | 2.97 | 0.976 | > 20 | 0.729 | 5.53
9 | ESO51 (oesophagus, semi-adherent) | 0.704 | 0.301 |  |  | 0.973 | > 10 |  |  | 0.958 | > 10 | 0.973 | > 1 | 0.909 | > 10.2 | 0.566 | 0.52 | 0.948 | > 20 | 0.625 | 3.18
10 | LOXIMVI (melanoma, semi-adherent) | 0.315 | 0.0203 | 0.883 | 8.68 | 0.91 | > 10 | 0.567 | 372 |  |  | 0.989 | > 1 | 0.875 | 8.18 | 0.746 | 1.47 | 0.971 | > 20 | 0.768 | 6.71
11 | KATOIII (stomach, semi-adherent) | 0.603 | 0.117 | 0.965 | > 10 | 0.988 | > 10 |  |  | 0.988 | > 10 | 0.983 | > 1 |  |  |  |  |  |  |  | 
12 | HCC-366 (non-small cell lung carcinoma, adherent) | 0.949 | > 1 |  |  | 0.978 | > 10 |  |  | 0.988 | > 10 | 0.985 | > 1 |  |  |  |  |  |  |  | 
13 | NCC010 (kidney, adherent) | 0.931 | > 1 | 0.92 | > 10 | 0.979 | > 10 |  |  | 0.986 | > 10 | 0.959 | > 1 |  |  |  |  |  |  |  | 
14 | NCI-H508 (large intestine, semi-adherent) | 0.583 | 0.123 | 0.963 | > 10 | 0.964 | > 10 |  |  | 0.915 | > 10 | 0.961 | > 1 |  |  |  |  |  |  |  | 
15 | NCI-N87 (stomach, adherent) | 0.425 | 0.0356 | 0.889 | > 10 | 0.961 | > 10 |  |  | 0.979 | > 10 | 0.976 | > 1 |  |  |  |  |  |  |  | 
16 | DIFI (large intestine, adherent) | 0.617 | 0.133 | 0.973 | > 10 | 0.986 | > 10 |  |  | 0.988 | > 10 | 0.984 | > 1 |  |  |  |  |  |  |  | 
17 | PWR-1E (prostate, adherent) | 0.662 | 0.176 | 0.849 | 7.42 | 0.798 | 4.73 |  |  | 0.984 | > 10 | 0.985 | > 1 |  |  |  |  |  |  |  | 
18 | VMRC-LCD (lung adenocarcinoma, adherent) | 0.91 | > 1 | 0.934 | > 10 | 0.986 | > 10 |  |  | 0.993 | > 10 | 0.992 | > 1 |  |  |  |  |  |  |  | 
19 | Jurkat (T-cell leukaemia, suspension) | 0.989 | > 1 | 0.984 | > 10 | 0.825 | 4.62 |  |  | 0.989 | > 10 | 0.987 | > 1 |  |  |  |  |  |  |  | 
